Source: PubChem BioAssay (NCI)
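Values below derive from 48-hour exposures of cells grown in 96-well plates, with endpoints linearly interpolated between the two concentrations bracketing the appropriate inhibition level. The concentration for 50% growth inhibition is given as GI50. TGI denotes the concentration required for complete inhibition of growth.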

tested on: NCI-H322M lung; test: NCI-60 cell line screen, 48 h

| SMILES | GI50 | TGI |
| --- | --- | --- |
| COc1cc(/C=C2\C[C@H]3[C@@H]4CC=C5C[C@@H](O)CC[C@]5(C)[C@H]4CC[C@]3(C)[C@H]2O)ccc1OCCCn1ccnc1 | 0.677 µM | 6.61 µM |
| CCCCCCCCCCCCOC1C(CNC(=O)C2OC3OC(C)(C)OC3C2NC(=O)Nc2ccc(CC(=O)NC(Cc3ccccc3)C(=O)O)cc2)OC2OC(C)(C)OC21 (configuration not stated) | > 25 µM | > 25 µM |
| COC(=O)CCC(C)C1CCC2C3C(C[C@H](OC(C)=O)[C@]12C)[C@@]1(C)CCC2(C[C@H]1C[C@H]3OC(C)=O)OOC1(CC[C@]3(C)C4C[C@H](OC(C)=O)[C@]5(C)C(C(C)CCC(=O)OC)CCC5C4[C@H](OC(C)=O)C[C@@H]3C1)OO2 (some centres not stated) | – | > 100 µM |
| O=C(c1ccc(Cl)cc1)N(C(=S)OCc1ccccn1)c1ccccc1 | – | > 100 µM |
| COC(=O)/C=C/C1(O)C=CC(=O)C=C1 | – | 29.3 µM |
| Ic1cc2c(cc1C1SCCCS1)OCO2 | – | > 100 µM |
| Clc1ccc(OCc2nnc3n2N=C(c2ccc(Cl)cc2Cl)CS3)cc1 | 16.8 µM | 85.8 µM |
| Brc1ccc2c(c1)-c1nc3nc4c(cc3cc1CC2)CCc1ccc(Br)cc1-4 | – | > 100 µM |
| CC(C)Cc1cc2c(cc1O)CCC1C2CC[C@@]2(C)C1CC[C@@H]2O (some centres not stated) | – | 25.4 µM |
| O=C1CSC(c2c[nH]c3ccccc23)N1c1ccccc1[N+](=O)[O-] (configuration not stated) | – | > 100 µM |
| O=C(NCCNCCCNC(=O)c1cc(-c2ccccc2)nc2ccccc12)c1cccc(OCc2ccccc2)c1OCc1ccccc1 | – | 3.25 µM |
| Cc1ccc2c(c1)S(=O)(=O)c1ccc3ccccc3c1N2 | – | > 100 µM |
| COc1cc(C2C(Cl)C(=O)N2NC(=O)c2ccc(N)cc2)cc(Br)c1O (configuration not stated) | – | 28.8 µM |
| CC1OC(OC2C(OC3CCC4(C)C(CCC5(C)C4CC=C4C6CC(C)(C)CCC6(C(=O)O)CCC45C)C3(C)CO)OCC(O)C2O)C(O)C(O)C1O (configuration not stated) | – | 37.3 µM |
